Measurements: publication PMC4336329 (PLoS ONE, 2015)
About 2,200 (0.71%) of roughly 310,000 compounds showed an effect of 50% or more. Effects have a minus sign here. This is one part of the list.

biological target: human ether-à-go-go-related gene (hERG) potassium channel (human, UniProt Q12809); assay: primary screen, population patch clamp on CHO cells stably expressing hERG
Sequence (Q12809 whole entry, looked up): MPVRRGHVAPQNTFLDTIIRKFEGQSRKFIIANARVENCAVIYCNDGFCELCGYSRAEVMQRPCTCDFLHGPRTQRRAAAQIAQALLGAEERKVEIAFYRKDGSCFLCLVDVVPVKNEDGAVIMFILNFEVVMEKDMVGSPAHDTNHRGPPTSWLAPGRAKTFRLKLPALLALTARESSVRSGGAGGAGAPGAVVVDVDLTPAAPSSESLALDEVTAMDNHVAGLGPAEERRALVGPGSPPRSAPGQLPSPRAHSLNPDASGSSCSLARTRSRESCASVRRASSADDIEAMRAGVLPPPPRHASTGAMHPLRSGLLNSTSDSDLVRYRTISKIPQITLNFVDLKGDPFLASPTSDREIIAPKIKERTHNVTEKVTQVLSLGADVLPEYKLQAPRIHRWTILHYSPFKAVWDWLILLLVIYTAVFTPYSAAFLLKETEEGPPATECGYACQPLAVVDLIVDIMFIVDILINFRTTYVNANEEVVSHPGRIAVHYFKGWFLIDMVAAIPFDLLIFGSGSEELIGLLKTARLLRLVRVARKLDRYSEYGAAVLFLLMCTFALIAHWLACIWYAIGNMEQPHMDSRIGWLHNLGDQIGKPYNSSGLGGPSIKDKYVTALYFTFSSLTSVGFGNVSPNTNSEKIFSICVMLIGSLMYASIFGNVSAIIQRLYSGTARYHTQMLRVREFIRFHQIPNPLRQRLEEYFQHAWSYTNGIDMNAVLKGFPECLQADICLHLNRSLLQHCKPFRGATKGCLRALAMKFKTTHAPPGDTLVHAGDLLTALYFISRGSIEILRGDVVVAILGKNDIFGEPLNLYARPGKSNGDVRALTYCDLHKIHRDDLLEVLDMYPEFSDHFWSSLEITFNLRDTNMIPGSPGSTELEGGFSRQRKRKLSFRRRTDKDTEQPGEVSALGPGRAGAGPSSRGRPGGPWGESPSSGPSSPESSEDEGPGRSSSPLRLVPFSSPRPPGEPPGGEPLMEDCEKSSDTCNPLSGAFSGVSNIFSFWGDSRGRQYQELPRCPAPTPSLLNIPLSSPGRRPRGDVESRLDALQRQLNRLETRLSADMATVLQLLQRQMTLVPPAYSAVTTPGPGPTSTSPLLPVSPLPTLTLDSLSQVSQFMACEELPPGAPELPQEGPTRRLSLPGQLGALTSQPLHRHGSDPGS

| SMILES | hERG current change (%, negative = inhibition) at 1uM [%] |
| --- | --- |
| CCc1noc(C)c1C(=O)N1CCCC(N2CCN(c3ccccc3F)CC2)C1 (stereo not drawn) | -0.882 |
| O=C(CSc1nnc2ccccn12)NC(=O)NC1CCCCC1 | 2.32 |
| CN(C)CC/C=C1/c2ccccc2Sc2ccc(Cl)cc21 | 10.9 |
| CCOc1ccc(C(=O)COC(=O)c2cc(=O)[nH]c3ccccc23)cc1 | 7.03 |
| Cc1ccsc1/C=c1\sc2ncnn2c1=O | 10.9 |
| Cc1ccc(NC(=O)CSc2nnc(-c3cccs3)n2Cc2ccco2)cc1 | -42 |
| CSCCC(NS(=O)(=O)c1ccc2c(c1)oc(=O)n2C)C(=O)NCc1ccccc1 (stereo not drawn) | 12 |
| COc1ccc(C2CC(c3cccs3)=NN2C(=O)CSc2nc3c(cnn3-c3ccccc3)c(=O)[nH]2)cc1 (stereo not drawn) | 0.415 |
| COCCNS(=O)(=O)c1cccc2cccnc12 | 15.4 |
| CCc1ccc2c(c1)C1(NN=C(c3cccc4ccccc34)S1)C(=O)N2 (stereo not drawn) | 12.5 |
| O=C(O)c1ccccc1NC(c1ccccc1)c1ccc(Cl)cc1 (stereo not drawn) | 19.6 |
| COCCNc1c(-c2cc3ccc(C)c(C)c3[nH]c2=O)nc2ccccn12 | -77 |
| O=C1NC(=S)N(c2ccc(F)cc2)C(=O)/C1=C/c1ccco1 | 10.3 |
| N#Cc1ccc(CSc2nnc3ccccn23)cc1 | 4.13 |
| Cc1csc2nc(O)c(C(=O)NCCCc3ccccc3)c(=O)n12 | -2.65 |
| COc1ccc2c(CC(=O)NC(Cc3ccc(Cl)cc3)C(=O)O)cc(=O)oc2c1C (stereo not drawn) | 8.85 |
| COc1ccc(S(=O)(=O)N(C)c2ccc(C(=O)NCC3CCCO3)cc2)cc1OC (stereo not drawn) | 8.52 |
| O=C(Cn1cnc2c(nnn2Cc2ccc(F)cc2)c1=O)NCc1ccccc1 | 7.8 |
| CC(C)(C)OC(=O)N[C@@H](C(=O)OC(C)(C)C)c1ccc(Br)cc1 | 15.8 |
| CCC(Sc1nc2cc(OC)c(OC)cc2c(=O)n1CCc1ccc(S(N)(=O)=O)cc1)C(=O)NCCOC (stereo not drawn) | -2.61 |
| COc1ccc(/C=N\NC(=O)c2ccc(-c3ccccc3)cc2)c(OC)c1OC | 12 |
| Cc1cc(C)c(S(=O)(=O)Nc2ccccc2C(=O)OCC(=O)NCc2ccccc2)c(C)c1 | 9.3 |
| CCOC(=O)C1(CCCc2ccccc2)CCN(C(=O)c2cnn(CC)c2)CC1 | -3.79 |
| O=C(NC(=S)N(CCO)Cc1ccccc1)c1ccc(F)cc1Cl | 8.89 |
